Assay results: PMC2174276 (The Journal of Cell Biology, 2000)

Molecular target: syntaxin1A (amino acids 4-266) (UniProt P32851)
Assay: native gel or EMSA

Chain of UniProt P32851 (P32851 4-266): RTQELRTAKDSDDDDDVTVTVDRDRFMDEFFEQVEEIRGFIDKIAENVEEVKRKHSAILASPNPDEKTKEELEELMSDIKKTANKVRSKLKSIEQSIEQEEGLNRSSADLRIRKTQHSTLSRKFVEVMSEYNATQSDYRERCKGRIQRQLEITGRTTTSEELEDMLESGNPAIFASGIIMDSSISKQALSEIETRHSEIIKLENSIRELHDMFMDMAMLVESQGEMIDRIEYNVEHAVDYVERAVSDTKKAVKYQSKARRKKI

B1: SNAP-25 ([…], four cysteines mutated to alanines) (natural protein)
chain: not shown
Question: Does B1 bind?
Answer: binds

B2: VAMP2 cytoplasmic domain ([…]) (domain or fragment)
chain: not shown
Question: Does B2 bind?
Answer: binds
